Measurements reported in PubChem BioAssay AID1240 (Sanford-Burnham Center for Chemical Genomics, 2008).
The whole screen tested about 50,000 compounds, of which about 800 (1.6%) showed an effect of 50% or more. This is one part of the list.

target: Bcl-2-like protein 10 (Homo sapiens) (UniProt Q9HD36); experiment: TR3 peptide-Bcl-B binding displacers, biochemical primary FP assay, phenotype converters (AID 1240); details: GST-Bcl-B / FITC-TR3 peptide fluorescence polarization; stronger effect = higher value; compound at 3.75 mg/L;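 also: 0% = Bcl-B with tracer peptide and DMSO and 100% = tracer peptide lacking Bcl-B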
UniProt Q9HD36, sequence (Q9HD36 whole entry, looked up): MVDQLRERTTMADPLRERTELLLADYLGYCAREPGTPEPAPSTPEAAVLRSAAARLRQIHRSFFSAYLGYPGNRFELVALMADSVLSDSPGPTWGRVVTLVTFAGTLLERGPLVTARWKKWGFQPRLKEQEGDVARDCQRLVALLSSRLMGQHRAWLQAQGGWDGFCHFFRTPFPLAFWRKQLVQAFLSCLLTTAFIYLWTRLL

CC(=O)N(c1ccccc1)c1c(F)c(F)c(F)c(F)c1F was tested. Which displacement did it give?
The displacement was -8.8%.

For CC(=O)Oc1cccc(N2C(=O)C3C4C=CC(CC4)C3C2=O)c1 (centres undefined), which displacement is on record?
Its displacement is -8.5%.

How did the displacement turn out when CCOC(=O)Cc1nnc(Nc2ccc(C)cc2)c2ccccc12 was run?
The displacement was 11.4%.

Which displacement does the source give for CCOC(=O)c1c(NC(=O)C(C)N2C(=O)c3ccccc3C2=O)sc2c1CCC(C)C2 (centres undefined) here?
Its displacement is 2.5%.

With O=P(CCN1CCOC1c1cccnc1)(c1ccccc1)c1ccccc1 (centres undefined) as the molecule, how does the displacement read?
The displacement was -8.2%.

CCOC(=O)c1c(NC(=S)Nc2ccc(OC)cc2)sc2c1CCCCC2 was tested. Which displacement did it give?
Its displacement is -1%.

For CCc1ccc(NC(=O)c2ccc(C)c([N+](=O)[O-])c2)cc1, which displacement is on record?
The displacement was 8.9%.

Which displacement does the source give for CCOC(=O)C1=C(O)/C(=C/c2ccc(OCC)cc2)SC1=Nc1ccc([N+](=O)[O-])cc1 here?
The displacement was 122%.

For CCOC(=O)c1ccc(N=CC2=C(O)c3ccccc3C2=O)cc1, which displacement is on record?
The displacement was -6%.

Which displacement does the source give for COC(=O)COc1ccc(/C=C2/C(=O)N(c3ccccc3)N=C2C)cc1 here?
The displacement was 6.5%.

Which displacement does the source give for N#C/C(=C\c1ccc(C(=O)O)cc1)C(=O)NCC1CCCO1 (centres undefined) here?
Its displacement is 0%.

With C=CCNC(=O)/C(=C/c1cn(-c2ccccc2)nc1-c1cccc([N+](=O)[O-])c1)NC(=O)c1ccccc1 as the molecule, how does the displacement read?
Its displacement is 11.3%.

How did the displacement turn out when COc1ccc(C(=O)/C=C/c2ccc(-c3ccc([N+](=O)[O-])cc3)o2)cc1 was run?
The displacement was 133%.

How did the displacement turn out when CCOC(=O)c1sc(NC(=O)c2ccc(C(C)C)cc2)nc1C was run?
The displacement was -4%.

Cc1ccc(NC(=O)CN2C(=O)c3ccccc3C2=O)c(C(=O)O)c1 was tested. Which displacement did it give?
The displacement was -3.3%.

How did the displacement turn out when CN1CCN(C(=O)c2ccc3c(c2)OCCO3)CC1 was run?
The displacement was -7.1%.

For O=C1NC(c2ccc(Cl)cc2Cl)Nc2c1sc(=S)n2-c1ccccc1 (centres undefined), which displacement is on record?
The displacement was -17.4%.

Cc1cc(C)nc(SCC(=O)OCC(=O)Nc2nnc(C)s2)n1 was tested. Which displacement did it give?
The displacement was -27.8%.

COCCN1C(=O)/C(=C\c2cccc(Cl)c2)C(C(=O)OC)=C1C was tested. Which displacement did it give?
The displacement was -5.5%.

CC(/C=N\NC(=O)c1cc(C(C)(C)C)[nH]n1)=C\c1ccccc1 was tested. Which displacement did it give?
Its displacement is -7.4%.

How did the displacement turn out when COC1=CC(CC(=O)c2ccc(OC)cc2)C(C(=O)c2ccccc2Cl)C=C1OC (centres undefined) was run?
Its displacement is -11%.

How did the displacement turn out when CS(=O)(=O)N1CCN(Cc2ccc(Cl)cc2)CC1 was run?
The displacement was 12.2%.

Cc1c(NC(=O)c2cccc(I)c2)cccc1-c1nc2ccccc2o1 was tested. Which displacement did it give?
The displacement was 11.6%.

Which displacement does the source give for COc1ccc(OC)c(/C=C/C(=O)c2ccc(Br)cc2)c1 here?
The displacement was 9%.

Cc1cccc(C)c1OCCCCNCCO was tested. Which displacement did it give?
The displacement was 0.1%.

For CC12CC3CC(C1)CC(CNC(=S)Nc1ccccc1)(C3)C2, which displacement is on record?
Its displacement is 11.3%.

How did the displacement turn out when O=c1nc(/C=C/c2cc3c(cc2[N+](=O)[O-])OCO3)cc(C(F)(F)F)[nH]1 was run?
Its displacement is 30.4%.

Cc1c(C(=O)OC(C)C)sc(NC(=O)c2ccccc2F)c1C#N was tested. Which displacement did it give?
The displacement was -6.8%.

How did the displacement turn out when COc1ccc(OCCn2cc(C=O)c3ccccc32)cc1 was run?
Its displacement is 13.5%.

Cc1cccc(OCCOc2ccc(Cl)cc2/C=C2/SC(=S)N(C)C2=O)c1 was tested. Which displacement did it give?
Its displacement is 6.5%.

How did the displacement turn out when S=C(NCc1ccccc1)NC1CC2CCC1C2 (centres undefined) was run?
Its displacement is 7.1%.

Which displacement does the source give for CC1=NN(c2nc(-c3ccc(Cl)cc3)cs2)C(=O)/C1=C\c1ccc2c(c1)OCO2 here?
Its displacement is 17.1%.

How did the displacement turn out when O=C(N/N=C/c1ccc(-c2ccccc2[N+](=O)[O-])o1)c1ccc2ccccc2c1O was run?
Its displacement is 13.3%.

Oc1ccc(N=Nc2ccc(Cl)cc2)c2cccnc12 was tested. Which displacement did it give?
Its displacement is 3%.

With CN(C)c1ccc(C(=O)N2CCN(c3ccccc3)CC2)cc1 as the molecule, how does the displacement read?
The displacement was 9.2%.

How did the displacement turn out when O=C(CN1CCN(C(c2ccccc2)c2ccccc2)CC1)CN1C(=O)c2ccccc2C1=O was run?
Its displacement is -6.8%.

Cc1ccc(/C=C2\CCC/C(=C\c3ccc(C)o3)C2=O)o1 was tested. Which displacement did it give?
The displacement was 15.2%.

How did the displacement turn out when CCOc1ccccc1NC(=S)NCc1ccccc1 was run?
Its displacement is 3.9%.

With CCOc1c(C=C(C#N)C#N)c2ccccc2n1CC as the molecule, how does the displacement read?
The displacement was 0.4%.

Which displacement does the source give for Cc1ccc(CN2CCN(S(C)(=O)=O)CC2)cc1 here?
The displacement was 13.2%.

For CC(=O)Nc1ccc(S(=O)(=O)Nc2ncccn2)cc1, which displacement is on record?
The displacement was -5.5%.

With CC(C)Cn1nc(-c2ccccc2)c2ccccc2c1=O as the molecule, how does the displacement read?
Its displacement is -4.1%.

How did the displacement turn out when CC(=O)C(=Nc1ccccc1Cl)NNc1cccc(Cl)c1C was run?
Its displacement is 12.6%.

With Cc1ccc(S(=O)(=O)N2CCN(Cc3cccnc3)CC2)cc1 as the molecule, how does the displacement read?
The displacement was 2%.

With Cc1ccc(C2Nc3ccccc3C(=O)N2c2ccccc2)cc1 (centres undefined) as the molecule, how does the displacement read?
Its displacement is 10.9%.

Which displacement does the source give for COC(=O)c1ccc(Nc2nnc(-c3ccc(C(=O)NCCO)cc3)c3ccccc23)cc1 here?
The displacement was 4.9%.

Which displacement does the source give for COc1cccc(OCCOc2ccc(/C=C3/SC(=S)N(c4ccccc4)C3=O)cc2OC)c1 here?
The displacement was 6.1%.

How did the displacement turn out when O=C(Nc1ccc2nn(-c3ccccc3)nc2c1)c1cccc(I)c1 was run?
Its displacement is 10.4%.

With O=[N+]([O-])c1ccccc1N/C(=N/S(=O)(=O)c1ccccc1)c1ccccc1 as the molecule, how does the displacement read?
Its displacement is 14.7%.

With O=C(/C=C/c1ccc(Cl)cc1)N1CCN(CCN2C(=O)c3cccc4cccc(c34)C2=O)CC1 as the molecule, how does the displacement read?
Its displacement is -8%.

For O=C(NNC(=O)c1cccc(O)c1)c1ccc(Br)cc1, which displacement is on record?
The displacement was 3.1%.

With CC(=O)Nc1ccccc1NC(=O)/C=C/c1ccccc1 as the molecule, how does the displacement read?
Its displacement is 6.5%.

CC(C)(C)N1C(=O)c2ccc(C(=O)Nc3cccc(C(=O)O)c3)cc2C1=O was tested. Which displacement did it give?
Its displacement is 13.5%.

How did the displacement turn out when CC(=O)CSc1nnnn1-c1ccccc1 was run?
Its displacement is 2.1%.
